In PMC9884267:
Results are given in words; binding and its absence hold for the method and conditions named. Binding seen in cells or lysates may run through a third protein. Some results given as binding are weak or reduced against the parent protein; the word gives no strength. For part of these data: Where a sequence is shown, tags or fusion partners need not be part of it.

Chains of the proteins cited; added tags and fusions are not shown. Lines headed by an entry give the natural chain unless they say otherwise; changes in a name come on top.
UniProt Q92769: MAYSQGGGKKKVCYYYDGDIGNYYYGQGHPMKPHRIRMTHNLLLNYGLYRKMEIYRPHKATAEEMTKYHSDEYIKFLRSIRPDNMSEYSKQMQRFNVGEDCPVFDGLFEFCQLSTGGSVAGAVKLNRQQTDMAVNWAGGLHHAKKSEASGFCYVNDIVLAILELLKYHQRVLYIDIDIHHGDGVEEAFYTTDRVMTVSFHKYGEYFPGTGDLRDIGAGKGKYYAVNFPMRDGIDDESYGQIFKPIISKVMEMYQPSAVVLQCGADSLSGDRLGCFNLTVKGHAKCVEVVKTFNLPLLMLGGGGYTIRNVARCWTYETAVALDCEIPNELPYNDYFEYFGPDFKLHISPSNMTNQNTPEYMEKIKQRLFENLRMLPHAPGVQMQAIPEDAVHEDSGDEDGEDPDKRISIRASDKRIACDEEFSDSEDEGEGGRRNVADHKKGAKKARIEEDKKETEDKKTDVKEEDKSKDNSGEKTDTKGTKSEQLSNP
UniProt Q9UBB5: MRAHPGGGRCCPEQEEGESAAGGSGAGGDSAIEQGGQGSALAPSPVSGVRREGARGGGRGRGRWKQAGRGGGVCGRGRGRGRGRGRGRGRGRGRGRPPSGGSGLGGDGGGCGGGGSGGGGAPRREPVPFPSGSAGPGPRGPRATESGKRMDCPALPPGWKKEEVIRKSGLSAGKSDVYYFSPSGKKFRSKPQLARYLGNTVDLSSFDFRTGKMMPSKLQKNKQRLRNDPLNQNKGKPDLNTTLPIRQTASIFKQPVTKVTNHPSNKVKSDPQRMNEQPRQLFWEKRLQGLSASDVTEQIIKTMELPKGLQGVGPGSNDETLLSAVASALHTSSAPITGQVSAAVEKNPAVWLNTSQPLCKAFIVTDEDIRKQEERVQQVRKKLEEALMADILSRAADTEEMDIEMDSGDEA
UniProt Q14839: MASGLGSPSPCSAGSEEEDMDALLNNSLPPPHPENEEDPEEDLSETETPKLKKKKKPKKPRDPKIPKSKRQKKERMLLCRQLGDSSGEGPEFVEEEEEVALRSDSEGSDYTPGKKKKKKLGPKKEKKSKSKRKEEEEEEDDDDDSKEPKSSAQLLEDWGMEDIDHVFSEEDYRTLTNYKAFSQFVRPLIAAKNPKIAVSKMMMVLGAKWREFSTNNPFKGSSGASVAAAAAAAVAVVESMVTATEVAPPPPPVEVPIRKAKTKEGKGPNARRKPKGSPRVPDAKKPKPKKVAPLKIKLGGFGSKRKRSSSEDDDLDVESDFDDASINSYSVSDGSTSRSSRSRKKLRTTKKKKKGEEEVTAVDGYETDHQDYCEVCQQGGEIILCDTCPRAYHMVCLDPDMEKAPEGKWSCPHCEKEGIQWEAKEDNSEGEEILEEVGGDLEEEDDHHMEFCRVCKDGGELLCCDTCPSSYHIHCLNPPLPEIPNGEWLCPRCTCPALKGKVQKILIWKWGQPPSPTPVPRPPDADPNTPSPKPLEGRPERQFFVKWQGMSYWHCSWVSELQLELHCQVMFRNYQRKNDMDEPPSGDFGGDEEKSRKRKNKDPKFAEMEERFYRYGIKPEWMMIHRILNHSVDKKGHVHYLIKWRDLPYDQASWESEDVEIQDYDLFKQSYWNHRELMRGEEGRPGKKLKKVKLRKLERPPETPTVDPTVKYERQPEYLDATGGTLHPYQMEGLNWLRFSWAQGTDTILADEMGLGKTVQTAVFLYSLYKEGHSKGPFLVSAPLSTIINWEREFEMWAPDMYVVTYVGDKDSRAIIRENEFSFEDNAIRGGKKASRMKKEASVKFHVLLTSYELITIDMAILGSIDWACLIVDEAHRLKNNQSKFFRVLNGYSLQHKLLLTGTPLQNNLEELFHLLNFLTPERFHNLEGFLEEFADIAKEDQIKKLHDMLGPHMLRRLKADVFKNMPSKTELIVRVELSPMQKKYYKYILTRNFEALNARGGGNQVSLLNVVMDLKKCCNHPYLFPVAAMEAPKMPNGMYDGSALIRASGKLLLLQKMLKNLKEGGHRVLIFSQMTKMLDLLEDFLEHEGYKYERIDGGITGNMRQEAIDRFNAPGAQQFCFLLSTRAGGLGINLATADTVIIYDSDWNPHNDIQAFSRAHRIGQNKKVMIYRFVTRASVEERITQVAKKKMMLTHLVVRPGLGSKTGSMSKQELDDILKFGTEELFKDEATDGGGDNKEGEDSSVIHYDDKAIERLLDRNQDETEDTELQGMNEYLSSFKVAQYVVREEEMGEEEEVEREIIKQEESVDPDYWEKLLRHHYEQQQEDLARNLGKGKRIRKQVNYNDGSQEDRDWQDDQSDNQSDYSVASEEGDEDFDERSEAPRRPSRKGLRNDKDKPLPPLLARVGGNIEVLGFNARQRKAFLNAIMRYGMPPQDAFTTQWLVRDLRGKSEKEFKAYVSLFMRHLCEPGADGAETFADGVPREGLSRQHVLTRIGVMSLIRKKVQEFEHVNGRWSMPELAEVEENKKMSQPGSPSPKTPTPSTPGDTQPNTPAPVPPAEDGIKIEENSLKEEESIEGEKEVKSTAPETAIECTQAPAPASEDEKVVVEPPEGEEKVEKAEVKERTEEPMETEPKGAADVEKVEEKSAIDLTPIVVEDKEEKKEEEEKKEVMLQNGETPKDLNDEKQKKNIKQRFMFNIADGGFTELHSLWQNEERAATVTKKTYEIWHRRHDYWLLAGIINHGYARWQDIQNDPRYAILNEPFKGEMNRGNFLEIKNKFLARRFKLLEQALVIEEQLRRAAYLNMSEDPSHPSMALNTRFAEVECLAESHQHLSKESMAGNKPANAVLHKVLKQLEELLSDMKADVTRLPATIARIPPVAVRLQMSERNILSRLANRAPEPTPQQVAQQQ
UniProt Q09028: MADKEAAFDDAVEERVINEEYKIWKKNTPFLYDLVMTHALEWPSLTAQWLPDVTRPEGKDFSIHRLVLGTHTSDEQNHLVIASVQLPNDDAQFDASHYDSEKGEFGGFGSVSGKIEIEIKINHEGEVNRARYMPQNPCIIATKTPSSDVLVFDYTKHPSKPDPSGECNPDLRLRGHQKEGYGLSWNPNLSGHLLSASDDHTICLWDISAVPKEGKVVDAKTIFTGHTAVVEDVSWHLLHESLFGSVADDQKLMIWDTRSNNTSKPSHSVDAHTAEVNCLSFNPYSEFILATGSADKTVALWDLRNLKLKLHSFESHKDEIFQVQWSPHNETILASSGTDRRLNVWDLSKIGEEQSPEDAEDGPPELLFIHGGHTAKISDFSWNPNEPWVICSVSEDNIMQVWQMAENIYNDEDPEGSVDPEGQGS
UniProt Q13547: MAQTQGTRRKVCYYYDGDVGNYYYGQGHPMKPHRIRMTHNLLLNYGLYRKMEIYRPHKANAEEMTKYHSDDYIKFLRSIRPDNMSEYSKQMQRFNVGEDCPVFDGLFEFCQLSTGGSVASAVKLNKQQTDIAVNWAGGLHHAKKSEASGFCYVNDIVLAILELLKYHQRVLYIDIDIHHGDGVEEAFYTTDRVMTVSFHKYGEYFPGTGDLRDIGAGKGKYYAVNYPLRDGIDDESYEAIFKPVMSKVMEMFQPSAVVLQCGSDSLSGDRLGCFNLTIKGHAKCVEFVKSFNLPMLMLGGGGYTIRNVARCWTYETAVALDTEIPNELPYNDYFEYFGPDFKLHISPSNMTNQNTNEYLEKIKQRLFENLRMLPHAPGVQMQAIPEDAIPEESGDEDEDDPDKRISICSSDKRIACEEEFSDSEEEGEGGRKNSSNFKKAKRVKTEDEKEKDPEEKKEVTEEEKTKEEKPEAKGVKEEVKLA

biological target: GFP-HMG20A (High Mobility Group 20A), stably expressed in HeLa Kyoto cells (human) (UniProt Q9NP66); assay: co-IP; mononucleosome IP: MNase-digested chromatin of HeLaK cells stably expressing the GFP fusion, GFP-TRAP beads overnight at 4 °C, washes with 150 mM NaCl, immunoblot of endogenous proteins; details: not given

Molecule	binding
HDAC2 (from UniProt Q92769 1-488)	binds
MBD2, endogenous in HeLa Kyoto cells (from UniProt Q9UBB5 1-411)	binds
HMG20B (protein, UniProt Q9P0W2 1-317) MSHGPKQPGAAAAPAGGKAPGQHGGFVVTVKQERGEGPRAGEKGSHEEEPVKKRGWPKGKKRKKILPNGPKAPVTGYVRFLNERREQIRTRHPDLPFPEITKMLGAEWSKLQPTEKQRYLDEAEREKQQYMKELRAYQQSEAYKMCTEKIQEKKIKKEDSSSGLMNTLLNGHKGGDCDGFSTFDVPIFTEEFLDQNKAREAELRRLRKMNVAFEEQNAVLQRHTQSMSSARERLEQELALEERRTLALQQQLQAVRQALTASFASLPVPGTGETPTLGTLDFYMARLHGAIERDPAQHEKLIVRIKEILAQVASEHL	binds
zinc finger protein ZNF512B (protein, UniProt Q96KM6 1-892) MTDPFCVGGRRLPGSSKSGPGKDGSRKEVRLPMLHDPPKMGMPVVRGGQTVPGQAPLCFDPGSPASDKTEGKKKGRPKAENQALRDIPLSLMNDWKDEFKAHSRVKCPNSGCWLEFPSIYGLKYHYQRCQGGAISDRLAFPCPFCEAAFTSKTQLEKHRIWNHMDRPLPASKPGPISRPVTISRPVGVSKPIGVSKPVTIGKPVGVSKPIGISKPVSVGRPMPVTKAIPVTRPVPVTKPVTVSRPMPVTKAMPVTKPITVTKSVPVTKPVPVTKPITVTKLVTVTKPVPVTKPVTVSRPIVVSKPVTVSRPIAISRHTPPCKMVLLTRSENKAPRATGRNSGKKRAADSLDTCPIPPKQARPENGEYGPSSMGQSSAFQLSADTSSGSLSPGSRPSGGMEALKAAGPASPPEEDPERTKHRRKQKTPKKFTGEQPSISGTFGLKGLVKAEDKARVHRSKKQEGPGPEDARKKVPAAPITVSKEAPAPVAHPAPGGPEEQWQRAIHERGEAVCPTCNVVTRKTLVGLKKHMEVCQKLQDALKCQHCRKQFKSKAGLNYHTMAEHSAKPSDAEASEGGEQEERERLRKVLKQMGRLRCPQEGCGAAFSSLMGYQYHQRRCGKPPCEVDSPSFPCTHCGKTYRSKAGHDYHVRSEHTAPPPEEPTDKSPEAEDPLGVERTPSGRVRRTSAQVAVFHLQEIAEDELARDWTKRRMKDDLVPETARLNYTRPGLPTLNPQLLEAWKNEVKEKGHVNCPNDCCEAIYSSVSGLKAHLASCSKGAHLAGKYRCLLCPKEFSSESGVKYHILKTHAENWFRTSADPPPKHRSQDSLVPKKEKKKNLAGGKKRGRKPKERTPEEPVAKLPPRRDDWPPGCRDKGARGSTGRKVGVSKAPEK	binds

biological target: GFP-HMG20A, expressed in HEK293 (Expi293F) cells (human) (UniProt Q9NP66); assay: co-IP; HEK Expi293F cells co-transfected with GFP-HMG20A (or its deletions) and FLAG- or HA-tagged NuRD subunits; lysis in 500 mM NaCl with DNase and RNase; capture on GFP nanobody bound to streptavidin beads, elution with biotin, immunoblot with anti-FLAG, anti-HA or anti-GFP; details: not given

Molecule	binding
FLAG-CHD4 (from UniProt Q14839 1-1912)	binds
FLAG-CHD4-C-terminus (CHD4 C-terminal domains, residues 1230-1912) (from UniProt Q14839 1230-1912) (domain or fragment)	no binding
FLAG-CHD4-N-terminus (CHD4 HMG box, residues 1-355) (from UniProt Q14839 1-355) (domain or fragment)	no binding
FLAG-CHD4-middle domain (CHD4 DNA translocase, residues 343-1230) (from UniProt Q14839 343-1230) (domain or fragment)	binds
FLAG-RBBP4 (from UniProt Q09028 1-425)	no binding
HA-MBD2 (from UniProt Q9UBB5 1-411)	binds
HDAC1-FLAG (from UniProt Q13547 1-482)	binds

Biological target: T1, GFP-HMG20A, expressed in HEK293 (Expi293F) cells (human), Q9NP66
T1 chain: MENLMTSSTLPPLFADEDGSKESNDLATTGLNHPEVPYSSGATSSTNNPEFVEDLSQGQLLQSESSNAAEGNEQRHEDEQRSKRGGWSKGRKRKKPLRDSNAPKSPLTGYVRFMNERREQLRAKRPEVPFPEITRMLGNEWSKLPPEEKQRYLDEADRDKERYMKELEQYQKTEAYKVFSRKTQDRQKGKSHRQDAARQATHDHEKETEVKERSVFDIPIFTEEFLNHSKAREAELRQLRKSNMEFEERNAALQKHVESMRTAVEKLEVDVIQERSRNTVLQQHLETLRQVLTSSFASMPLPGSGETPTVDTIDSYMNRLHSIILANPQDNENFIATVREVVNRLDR
Assay: as above
Details: remark: other sources report otherwise

Molecule	binding
FLAG-MTA2, O94776 1-668 (protein) MAANMYRVGDYVYFENSSSNPYLVRRIEELNKTANGNVEAKVVCLFRRRDISSSLNSLADSNAREFEEESKQPGVSEQQRHQLKHRELFLSRQFESLPATHIRGKCSVTLLNETDILSQYLEKEDCFFYSLVFDPVQKTLLADQGEIRVGCKYQAEIPDRLVEGESDNRNQQKMEMKVWDPDNPLTDRQIDQFLVVARAVGTFARALDCSSSIRQPSLHMSAAAASRDITLFHAMDTLQRNGYDLAKAMSTLVPQGGPVLCRDEMEEWSASEAMLFEEALEKYGKDFNDIRQDFLPWKSLASIVQFYYMWKTTDRYIQQKRLKAAEADSKLKQVYIPTYTKPNPNQIISVGSKPGMNGAGFQKGLTCESCHTTQSAQWYAWGPPNMQCRLCASCWIYWKKYGGLKTPTQLEGATRGTTEPHSRGHLSRPEAQSLSPYTTSANRAKLLAKNRQTFLLQTTKLTRLARRMCRDLLQPRRAARRPYAPINANAIKAECSIRLPKAAKTPLKIHPLVRLPLATIVKDLVAQAPLKPKTPRGTKTPINRNQLSQNRGLGGIMVKRAYETMAGAGVPFSANGRPLASGIRSSSQPAAKRQKLNPADAPNPVVFVATKDTRALRKALTHLEMRRAARRPNLPLKVKPTLIAVRPPVPLPAPSHPASTNEPIVLED	binds
